This is one part of the list. Shown are side measurements of this screen, not its main read-out; they come without a call. Most of these compounds were active or inconclusive in the main read-out, so they are no random draw.
Test: growth inhibition of WT strain, primary screen, mitochondrial fusion inhibitor project, WT and mutant strains, chemical genetic (AID 1362); also: tested in S. cerevisiae
Conditions: mitochondrial fusion phenotypic screen, at 10 µM

SMILES | inhibition
Cc1cc(C)c2sc(N(CCCN(C)C)C(=O)COc3ccc(Cl)cc3)nc2c1 | 86.7%
FC(F)C(F)(F)C(F)(F)C(F)(F)c1cc(-c2ccccc2)n[nH]1 | 42.5%
COc1cccc(N2C(=O)C(c3ccccc3)=C(c3nc4ccccc4s3)C2NC(C)=O)c1 (stereo not given) | 6.32%
C/C(=N\Nc1ccc(Cl)c(Cl)c1)c1ccc(-n2ccnc2)cc1 | 65.7%
CN1C(=S)SC(C)(C)C1(C)NO (stereo not given) | 6.85%
O=C1c2ccccc2C(Nc2ccc(Cl)cn2)N1Cc1ccccc1 (stereo not given) | 59.1%
Cc1ccc([N+](=O)[O-])cc1NC(=S)NC(=O)CC(C)(C)C | 38.3%
COc1ccc(/C=N/Nc2nc(-c3ccc(Cl)cc3)cc(C(F)(F)F)n2)cc1OC | 45.6%
Cc1[nH]c2ccccc2c1/C=C(\C#N)C(=O)NC(C)c1ccccc1 (stereo not given) | 7.25%
COc1cccc(-c2cc3nc(-c4ccccc4)cc(N4CCCC(O)C4)n3n2)c1 (stereo not given) | 28.9%
CC(=O)Nc1ccc(C(=O)OCc2ccccc2Br)cc1 | 52.2%
COC(=O)C1C(=O)NCC1c1ccccc1 (stereo not given) | 16.2%
FC(F)Oc1ccc(NC(=S)NCc2ccccc2)cc1Cl | 36.8%
Cc1ccc(C)c(N2CCN(C(=O)c3ccccc3Br)CC2)c1 | 34.7%
COc1cccc(-c2ccc(C#N)c(OC(=O)c3c(Cl)cccc3Cl)n2)c1 | -3.87%
CCOc1ccccc1N1CCN(C(=O)c2ccc3[nH]c4c(c3c2)CCCC4)CC1 | -1.5%
CC1CCN(C(=S)c2cn(Cc3cccc(F)c3)c3ccccc23)CC1 | 47.6%
S=C(NCCSCc1ccc(Cl)cc1Cl)Nc1ccccc1 | 52.5%
O=S(=O)(c1ccccc1)c1cnc(-c2cccnc2)nc1-c1ccc(Cl)cc1Cl | 30.9%
CCn1c(O)c(C2=c3ccccc3=NC2=O)c2cc(Br)ccc21 | 56.6%
CC(C)(C)n1nnnc1C(c1ccc(F)cc1)N(Cc1ccc(F)cc1)Cc1ccco1 (stereo not given) | -8.88%
S=C(Nc1cccc(Cl)c1)N(CCCN1CCCC1)Cc1cccn1Cc1ccc(Cl)cc1 | 63.1%
Cc1ccc(S(=O)(=O)N(CC(=O)NCCC2=CCCCC2)Cc2ccccc2F)cc1 | 17.3%
O=C(N=C1SCC(=O)N1c1ccccc1Cl)c1ccccc1 | 27.1%

SMILES | inhibition
c1ccc(-c2c(-c3ccccc3)n(Cc3ccco3)c3ncnc(NCCCn4ccnc4)c23)cc1 | 32.2%
Cc1noc2ncnc(Sc3ccccc3Cl)c12 | 97.7%
Cc1ccc(C2CCN(C(=S)NC3CCCCC3)C2)cc1 (stereo not given) | 61.5%
O=C(Nc1nnc(C2=COCCO2)o1)c1ccc(Cc2ccccc2)cc1 | 49.6%
Cc1ccccc1CN(C)CC(=O)Nc1ccccc1-c1ccccc1 | 19.1%
c1ccc(Nc2scc(-c3ccccc3)[n+]2Cc2ccco2)cc1 | 51.4%
CCOC(=O)c1c(NC(NC(=O)C(C)C)C(Cl)(Cl)Cl)sc2c1CCC2 (stereo not given) | 20.4%
Cc1ccc(NC(=O)c2cccs2)cc1S(=O)(=O)Nc1cccc(Cl)c1 | 35.2%
CC1=CC(C)(C)N(S(=O)(=O)c2ccc(F)cc2)c2ccc(C)cc21 | 39.5%
COc1ccc(/C=C/c2nc3ccccc3n2Cc2ccccc2OC)cc1 | 29%
COc1ccc(OC)c(C2C=C(C34CC5CC(CC(C5)C3)C4)NC(=S)N2)c1 (stereo not given) | 62%
CCC(=O)NNc1ccc(Br)cc1 | 59%
COc1cc2c(cc1NC(=O)CN1C(=O)NC3(CCc4ccccc43)C1=O)oc1ccccc12 (stereo not given) | 35.4%
Cc1ccc2c(c1)c1c(n2CC(O)CNC2CCCCC2)CCCC1 (stereo not given) | 87.5%
O=C(NCC1(c2ccccc2)CCCC1)C1(c2ccccc2)CCCC1 | -11.8%
CCCC1=C(C(=O)OCC)C(c2ccc(NC(C)=O)cc2)NC(=O)N1 (stereo not given) | 51.8%
Cn1nc(C(F)(F)F)c2cc(C(=O)Nc3ccc(Cl)cc3)sc21 | 46.9%
COc1cc(OC)nc(Oc2ccccc2C(=O)Oc2cccc(C)c2)n1 | 50.7%
CCN(CC)C(=O)C1CC(=O)N(c2ccc(F)c(Cl)c2)C1 (stereo not given) | 7.41%
O=C(c1ccc(Cl)cc1)N1CCN(c2ccc(F)cc2)CC1 | 32.8%
COc1ccc(Cn2c(-c3ccc(C)cc3)c[n+]3ccccc23)cc1 | 17.4%
O=C1c2ccccc2OC2(C=Cc3ccccc3O2)N1Cc1ccccc1 (stereo not given) | 10.8%
COC(=O)CN(c1ccc2c(c1)OCCO2)S(=O)(=O)c1ccccc1 | 6.03%
Nc1cc(=O)[nH]c(=S)n1-c1ccccc1 | 14.8%

SMILES | inhibition
Cc1ccc(C(=O)CC(=O)c2cc(Cl)ccc2O)cc1 | 60.7%
CCOC(=O)C1=C(C)NC(C)=C(C(=O)OC)C1c1cccc(Cl)c1Cl (stereo not given) | -14.4%
Cc1nc2sccn2c(=O)c1CCN1CCC(=C(c2ccc(F)cc2)c2ccc(F)cc2)CC1 | 71.8%
Cc1cc(C)c(C(N)=O)c(Nc2cccc3ccccc23)n1 | 28.7%
CC(C)Cn1c(=O)c(C(=O)Nc2ccccc2S(N)(=O)=O)c(O)c2ccccc21 | 41.1%
CC(NC(=S)NCCCN1CCOCC1)C1CC2CCC1C2 (stereo not given) | -3.38%
O=C(Nc1nnc(-c2cccs2)o1)c1cc(-c2ccccc2)nc2ccccc12 | 62.4%
CC1=NOC(=O)/C1=C\c1ccc(-c2ccc(Cl)cc2Cl)o1 | 81.9%
CC(C)c1ccccc1NC(=S)NC1CCCCC1 | 63.1%
CCOc1ccc(N2C(=O)CC(Sc3nnnn3-c3ccccc3)C2=O)cc1 (stereo not given) | 41.2%
Cc1ccc(NC(=S)NCCC(c2ccccc2)c2ccccc2)c(C)c1 | 34.6%
Cc1nc(Nc2ccccc2)sc1-c1ccccc1 | 18.5%
O=[N+]([O-])c1ccccc1/C=C/C=N/n1c(-c2ccccc2)n[nH]c1=S | 22.7%
O=C(CCN1C(=O)/C(=C/c2cccs2)SC1=S)NC1=NCCS1 | 17%
Cc1cc(N2CCC(C)CC2)nc(-n2nc(C)cc2C)n1 | 66.5%
COc1ccc(NC(=S)N(CCCN2CCCC2)Cc2cccn2Cc2ccc(Cl)cc2)cc1Cl | 28.6%
O=C(COC(=O)CC(c1ccccc1)c1ccccc1)Nc1ccc(F)c(F)c1 | 33.3%
CCOC(=O)Cc1ccc2sc(-c3ccccc3)nc2c1 | 45%
Cc1cccc(NC(=S)N(CCCN2CCCC2)Cc2cccn2Cc2ccc(Cl)cc2)c1 | 31.8%
CN1CCN(Cc2nc3ccccc3c(=O)n2Cc2nc(-c3ccc4ccccc4c3)cs2)CC1 | 78.3%
C/C(=N\NC(=O)COc1ccccc1-c1ccccc1)c1ccccn1 | 61.8%
CNC(=O)c1nn(-c2ccc(Cl)cc2)ccc1=O | 97.8%

Reference: PubChem BioAssay AID1362 (SRMLSC, 2008)
